The results in this text go back to PMC4336329 (PLoS ONE, 2015).

Hit rate of the full screen: of about 310,000 compounds, about 2,200 (0.71%) showed an effect of 50% or more. Effects have a minus sign here. This is one part of the list.

For the test, the target named is human ether-à-go-go-related gene (hERG) potassium channel (human, UniProt Q12809). Briefly: primary screen, population patch clamp on CHO cells stably expressing hERG.
Sequence of human ether-à-go-go-related gene (hERG) potassium channel (Q12809 whole entry, looked up): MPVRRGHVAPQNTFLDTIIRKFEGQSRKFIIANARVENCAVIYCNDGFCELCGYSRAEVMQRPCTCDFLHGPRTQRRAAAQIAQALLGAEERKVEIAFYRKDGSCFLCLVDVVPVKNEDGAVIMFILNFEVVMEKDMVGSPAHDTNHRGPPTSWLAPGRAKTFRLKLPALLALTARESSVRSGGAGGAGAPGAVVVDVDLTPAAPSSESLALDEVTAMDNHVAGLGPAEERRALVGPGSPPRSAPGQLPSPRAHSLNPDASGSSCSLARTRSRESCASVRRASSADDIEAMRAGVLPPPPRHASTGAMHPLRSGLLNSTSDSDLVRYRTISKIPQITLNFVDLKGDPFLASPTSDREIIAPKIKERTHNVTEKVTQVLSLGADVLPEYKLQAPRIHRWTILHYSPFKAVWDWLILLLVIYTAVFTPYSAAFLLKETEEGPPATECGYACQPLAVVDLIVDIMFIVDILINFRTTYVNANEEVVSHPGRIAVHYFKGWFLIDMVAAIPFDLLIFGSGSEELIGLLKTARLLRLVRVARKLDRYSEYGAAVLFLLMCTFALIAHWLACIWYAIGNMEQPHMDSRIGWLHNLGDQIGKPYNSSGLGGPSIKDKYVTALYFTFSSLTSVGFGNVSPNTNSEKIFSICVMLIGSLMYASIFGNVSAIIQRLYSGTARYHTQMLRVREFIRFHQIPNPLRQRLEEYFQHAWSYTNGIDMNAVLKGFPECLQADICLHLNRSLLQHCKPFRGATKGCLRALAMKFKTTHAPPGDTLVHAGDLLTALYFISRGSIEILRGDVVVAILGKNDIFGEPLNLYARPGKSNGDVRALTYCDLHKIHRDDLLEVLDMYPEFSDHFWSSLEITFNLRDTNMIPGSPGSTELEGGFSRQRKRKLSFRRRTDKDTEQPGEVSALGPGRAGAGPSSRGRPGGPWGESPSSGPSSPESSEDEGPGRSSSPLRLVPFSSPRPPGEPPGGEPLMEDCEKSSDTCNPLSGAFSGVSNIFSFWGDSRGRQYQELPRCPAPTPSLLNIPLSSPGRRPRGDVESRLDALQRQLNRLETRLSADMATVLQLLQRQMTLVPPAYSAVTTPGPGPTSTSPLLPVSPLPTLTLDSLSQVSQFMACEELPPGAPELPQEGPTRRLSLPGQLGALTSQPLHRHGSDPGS
`Cc1cc(C)cc(OCC(=O)Nc2cccc(S(=O)(=O)NC3=NCCC3)c2)c1`: the “hERG current change (%, negative = inhibition) at 1uM” value was found to be 7.29%.

For the compound `CCC(C)NC(=O)c1cc(Cl)ccc1OC` (stereo not shown), the “hERG current change (%, negative = inhibition) at 1uM” value is given as -5.91%.

Regarding `FC(F)(F)c1ccc(CNCCc2c[nH]c3ccccc23)cc1.O=C(O)C(=O)O`, the “hERG current change (%, negative = inhibition) at 1uM” value was found to be 1.31%.

`Cc1cc(C(=O)CCl)c(C)n1-c1c(C)n(C)n(-c2ccccc2)c1=O`: the “hERG current change (%, negative = inhibition) at 1uM” value came out at 9.82%.

With `CCOC(=O)c1nc2ccccc2nc1C`, the “hERG current change (%, negative = inhibition) at 1uM” value is on record as 3.37%.

As to `Cn1c(=O)n(C)c2cc(/C=C(/C#N)C(=O)NCc3ccco3)ccc21`, the “hERG current change (%, negative = inhibition) at 1uM” value came out at 12.7%.

Regarding `Cc1cc(OCc2nc(-c3cccnc3)no2)c(C)cc1Br`, the “hERG current change (%, negative = inhibition) at 1uM” value was 7.39%.

For `O=C(Nn1c(SCc2ccc(F)cc2)nc2ccsc2c1=O)c1ccccc1`, the “hERG current change (%, negative = inhibition) at 1uM” value is given as 10.4%.

As to `CCCCSc1nc(C)c(C(C)=O)cc1C#N`, the “hERG current change (%, negative = inhibition) at 1uM” value was 9.76%.

Take `CC1(C)CC(NC(=O)C(Cl)(Cl)Cl)CC(C)(C)N1`: the “hERG current change (%, negative = inhibition) at 1uM” value came to 9.15%.

As for `CC(=O)Nc1nc2ccccc2[nH]1`, the “hERG current change (%, negative = inhibition) at 1uM” value turned out to be 1.74%.

With `O=[N+]([O-])c1ccc2nc(NS(=O)(=O)c3ccccc3[N+](=O)[O-])sc2c1`, the “hERG current change (%, negative = inhibition) at 1uM” value was determined as 16%.

Regarding `Cc1cc(C)n2c(Br)c(CN3CCCC(C)C3)nc2n1` (stereo not shown), the “hERG current change (%, negative = inhibition) at 1uM” value is 27.9%.

On to `Cc1oc2c(CN3CCCC3)c(O)ccc2c(=O)c1Oc1ccccc1Br`, for which the “hERG current change (%, negative = inhibition) at 1uM” value came out at 4.09%.

With `CN(C)CCn1c(SCc2ccccc2C#N)nc2c(sc3ccccc32)c1=O.Cl`, the “hERG current change (%, negative = inhibition) at 1uM” value was 10.2%.

As to `Clc1cccc(CN2CCSCC2)c1`, the “hERG current change (%, negative = inhibition) at 1uM” value came to 12.6%.

With `CC1CCN(C(=O)CSc2nnc(Cc3cccn3C)n2-c2ccc(F)cc2)CC1`, the “hERG current change (%, negative = inhibition) at 1uM” value came to 3.05%.

In the case of `CN(Cc1ccccn1)C(=O)C1CCC(=O)N(CCc2ccc(Cl)cc2)C1` (stereo not shown), the “hERG current change (%, negative = inhibition) at 1uM” value was -17.4%.

Take `COc1ccc(N(C(=O)CNC(=O)c2cccs2)C(C(=O)NCC2CCCO2)c2ccccc2)cc1OC` (stereo not shown): the “hERG current change (%, negative = inhibition) at 1uM” value turned out to be 7.78%.

For the compound `COc1cc(Cl)ccc1OCc1cc(C(=O)NCCCN2CCCC2=O)no1`, the “hERG current change (%, negative = inhibition) at 1uM” value came to 11.4%.

Turning to `COc1ccccc1NC(=S)N1CCN(C(=O)C2CCCO2)CC1` (stereo not shown), the “hERG current change (%, negative = inhibition) at 1uM” value stood at 12.9%.

`COc1ccc(C2/C=C\CN(C(=O)C3CCCCC3)CC(=O)N2Cc2ccc(F)cc2)cc1` (stereo not shown): the “hERG current change (%, negative = inhibition) at 1uM” value came to 6.71%.

`CCOC(=O)N/N=C(\C)c1ccc(-n2cnnn2)cc1`: the “hERG current change (%, negative = inhibition) at 1uM” value was 18.5%.

Consider `CNC(=O)CSc1nc2ccccc2c(=O)n1CCc1ccccc1`, for which the “hERG current change (%, negative = inhibition) at 1uM” value was determined as 14%.

With `C=CCC1(CC=C)CCCN1C(=O)C1CCC(=O)N(CCc2ccc(Cl)cc2)C1` (stereo not shown), the “hERG current change (%, negative = inhibition) at 1uM” value is -2.41%.

For `COC(=O)CNc1c(-c2ccccn2)nc2ccc(Br)cn12`, the “hERG current change (%, negative = inhibition) at 1uM” value was found to be 10%.

As to `CC1CN(C(=O)Nc2cccc(C(F)(F)F)c2)CC(C)O1` (stereo not shown), the “hERG current change (%, negative = inhibition) at 1uM” value is listed as 15.1%.

For the compound `Cc1ccc(S(=O)(=O)NCc2ccccc2)cc1C(=O)NCC(C)(C)N1CCOCC1`, the “hERG current change (%, negative = inhibition) at 1uM” value came out at 10.7%.

`CCCn1c(N)c(NCCN2CCOCC2)c(=O)n(CC(=O)NCc2ccccc2)c1=O`: the “hERG current change (%, negative = inhibition) at 1uM” value is recorded as 12.4%.

As for `COc1ccc(OC)c(N=C2C(=O)Nc3ccccc32)c1`, the “hERG current change (%, negative = inhibition) at 1uM” value worked out at 5.48%.

For `CCOC(=O)NC(NS(=O)(=O)c1ccccc1)(C(=O)OCC)C(F)(F)F` (stereo not shown), the “hERG current change (%, negative = inhibition) at 1uM” value is 5.62%.

With `CCOC(=O)CN1C(=O)N[C@@H](c2cccs2)C(C(C)=O)=C1C`, the “hERG current change (%, negative = inhibition) at 1uM” value is 16.1%.

Turning to `CCN1CCN(C(=O)c2ccc3c(c2)S(=O)(=O)c2ccccc2C3=O)CC1.Cl`, the “hERG current change (%, negative = inhibition) at 1uM” value is recorded as 6.61%.

Consider `COc1ccc(CC(=O)NC(C)CCc2ccccc2)cc1OC` (stereo not shown), for which the “hERG current change (%, negative = inhibition) at 1uM” value amounted to 2.11%.

As to `COc1ccc(CN2CCN(C(=O)c3ccco3)CC2)c(OC)c1OC`, the “hERG current change (%, negative = inhibition) at 1uM” value is recorded as 15.4%.

Turning to `Cc1ccccc1C(=O)NC1CCN(C(=O)NC2CCCCC2)CC1`, the “hERG current change (%, negative = inhibition) at 1uM” value is given as 19.8%.

For the compound `CCN(CC)c1ccc(N=Cc2c(O)n(Cc3ccccc3)c(=O)[nH]c2=O)cc1` [14738079], the “hERG current change (%, negative = inhibition) at 1uM” value amounted to 14.2%.

Take `CSc1ccc(CNc2nc3ccccc3n3cnnc23)cc1`: the “hERG current change (%, negative = inhibition) at 1uM” value is recorded as 9.37%.

With `Cc1nnc(SCC(=O)Nc2ccccc2)n1CCc1ccccc1`, the “hERG current change (%, negative = inhibition) at 1uM” value is reported as 1.74%.

For the compound `COc1cccc(-c2nc(CS(=O)(=O)CC(=O)NCCCOC(C)C)c(C)o2)c1`, the “hERG current change (%, negative = inhibition) at 1uM” value is reported as 7.19%.

For `Cc1nn(Cc2ccccc2Cl)c(C)c1NC(=O)CSc1n[nH]c(C)c1[N+](=O)[O-]`, the “hERG current change (%, negative = inhibition) at 1uM” value is 17.7%.

In the case of `Cc1nc(NC(=O)c2cc3c(s2)CCCCC3)sc1C(=O)N(C)C`, the “hERG current change (%, negative = inhibition) at 1uM” value is listed as -6.86%.

`COC(=O)c1ccc(-c2nc3cc(N)ccc3o2)cc1`: the “hERG current change (%, negative = inhibition) at 1uM” value is given as 2.82%.

Regarding `Cc1occc1C(=O)NNC(=O)c1ccc(F)cc1`, the “hERG current change (%, negative = inhibition) at 1uM” value is recorded as 3.59%.

Take `CC1(C)CC(NC(=O)C2CCCCC2C(=O)O)CC(C)(C)N1` (stereo not shown): the “hERG current change (%, negative = inhibition) at 1uM” value was found to be 13.1%.

As to `CCn1c(C(=O)N2CCc3ccccc3C2)cc2sccc21`, the “hERG current change (%, negative = inhibition) at 1uM” value turned out to be 16%.

Regarding `Cc1ccc(S(=O)(=O)c2nc(S(C)(=O)=O)sc2N2CCCCCC2)cc1`, the “hERG current change (%, negative = inhibition) at 1uM” value was 13.7%.

As to `CCSc1nc(C2CC2)cc(-c2cccs2)c1C#N`, the “hERG current change (%, negative = inhibition) at 1uM” value is 1.73%.

Turning to `CC(C)(Cc1ccc(O)cc1)NC(=O)CC(=O)N=Nc1c(O)[nH]c2cc(Br)ccc12`, the “hERG current change (%, negative = inhibition) at 1uM” value turned out to be 1.28%.

Take `O=S(=O)(c1cccc(-c2nnc(-c3cccnc3)o2)c1)N1CCCCC1`: the “hERG current change (%, negative = inhibition) at 1uM” value is on record as 1.89%.

With `COc1ccccc1NC(=O)CSc1nnc(Cc2cccs2)n1C`, the “hERG current change (%, negative = inhibition) at 1uM” value turned out to be 17.6%.

`O=C(NCc1ccc2c(c1)OCO2)C1CCCN(S(=O)(=O)c2cccs2)C1` (stereo not shown): the “hERG current change (%, negative = inhibition) at 1uM” value is reported as 8.27%.

`CCOC(=O)c1cnc(SCC(=O)Nc2cc(OC)ccc2OC)nc1N`: the “hERG current change (%, negative = inhibition) at 1uM” value was 14%.

`O=C(NCC1CCCO1)C1CCN(S(=O)(=O)c2cccc3nonc23)CC1` (stereo not shown): the “hERG current change (%, negative = inhibition) at 1uM” value is 9.16%.

In the case of `CS(=O)(=O)Nc1ccc(S(=O)(=O)N2CCCC2)cc1`, the “hERG current change (%, negative = inhibition) at 1uM” value stood at 2.14%.

Take `C=CCc1c(C)nc2c(OC)cccc2c1Cl`: the “hERG current change (%, negative = inhibition) at 1uM” value is on record as 0.675%.

On to `CN(Cc1ccc(F)cc1)C(=O)c1cccc(NS(=O)(=O)c2ccccc2)c1`, for which the “hERG current change (%, negative = inhibition) at 1uM” value amounted to 12.6%.

In the case of `CSc1nsc(/C=C/Nc2ccc(C)c(C)c2)c1C#N`, the “hERG current change (%, negative = inhibition) at 1uM” value came to 6.29%.
